Data published in PubChem BioAssay AID493168 (National Center for Advancing Translational Sciences (NCATS), 2011).
The inconclusive results got no clear call from the source; some entries with a clear call stand among them for comparison. Potencies of inconclusive entries are left out as doubtful fits. The source made the active and inactive calls. The call rests on the fitted dose curve; in most records, active means well fitted inhibition curve with a large enough effect; inconclusive means small, poorly fitted or top-dose-only effect, or effect the other way; inactive means flat fitted curve, though single readings scatter.

molecular target: Ubiquitin carboxyl-terminal hydrolase 2 (Homo sapiens) (UniProt O75604); test: Confirmation Assay for Inhibitors of Ubiquitin-specific Protease USP2a Using CHOP2 as the Reporter; settings: USP2 core, Ub-CHOP2 coupled reporter fluorescence; series mostly up to 38.3 µM; further: nearly all actives have a fitted effect of over 55% in size
Summary of the method: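 USP2 core (10 nM final) was preincubated with compound for 30 min at RT in Tris-HCl pH 8.0, CaCl2, beta-mercaptoethanol, CHAPS. Ub-CHOP2 and reporter substrate (25 nM final each) were added, and fluorescence (Ex 485/Em 531 nm) was read after 60 min.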
Potency means the concentration at half of the fitted maximal effect; tags describe the fitted curve by direction and shape.

Chain of UniProt O75604 (O75604 whole entry, looked up): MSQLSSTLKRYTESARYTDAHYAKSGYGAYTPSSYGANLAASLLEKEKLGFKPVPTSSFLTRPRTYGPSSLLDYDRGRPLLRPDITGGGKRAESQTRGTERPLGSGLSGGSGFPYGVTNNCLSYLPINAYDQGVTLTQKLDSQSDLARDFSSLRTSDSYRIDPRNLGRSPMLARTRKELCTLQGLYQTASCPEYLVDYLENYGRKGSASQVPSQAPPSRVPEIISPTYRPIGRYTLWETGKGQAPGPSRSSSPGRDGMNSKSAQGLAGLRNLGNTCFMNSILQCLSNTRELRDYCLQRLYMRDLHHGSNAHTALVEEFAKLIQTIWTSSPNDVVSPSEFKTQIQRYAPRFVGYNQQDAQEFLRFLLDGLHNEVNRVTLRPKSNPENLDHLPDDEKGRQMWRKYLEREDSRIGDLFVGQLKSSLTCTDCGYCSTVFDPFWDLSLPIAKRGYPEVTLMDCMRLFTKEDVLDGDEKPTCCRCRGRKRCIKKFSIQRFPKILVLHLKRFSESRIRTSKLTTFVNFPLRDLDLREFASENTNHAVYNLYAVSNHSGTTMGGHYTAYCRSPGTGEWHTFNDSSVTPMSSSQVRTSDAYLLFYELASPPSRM

**Q.** For `O=C(Nc1cccc(-c2nn[nH]n2)c1)c1ccc(Br)s1`, which Potency is on record?
**A.** active: 5.21 µM

**Q.** Which Potency does the source give for `CCCCCCCCCCC[N+](C)(C)CC/C=C1/c2ccccc2Sc2ccc(Cl)cc21` here?
**A.** active: 9.27 µM

**Q.** For `CC1CCCCN1CCNC(=O)c1cnn2ccccc12` (centres undefined), which Potency is on record?
**A.** inactive

**Q.** `O=C1COc2ccc(C(=O)COC(=O)/C=C/c3ccc(Br)o3)cc2N1` was tested. Which Potency did it give?
**A.** active: 9.27 µM

**Q.** `CC(C)c1ccc(Nc2nnc(SCC(=O)c3nnc(-c4ccccc4)o3)s2)cc1` was tested. Which Potency did it give?
**A.** active: 6.56 µM

**Q.** Which Potency does the source give for `O=C(/C=C1\NC2(CCCC2)Cc2ccccc21)C(=O)N/N=C/c1ccc(O)c(O)c1` here?
**A.** inconclusive [inhibitor, single point]

**Q.** `O=C(c1cc(-c2ccco2)on1)N1CCc2ccccc2C1` was tested. Which Potency did it give?
**A.** inconclusive [inhibitor, single point]

**Q.** Which Potency does the source give for `Cc1ccc(S(=O)(=O)N2[C@@H](c3ccc(C(C)(C)C)cc3)C(C(=O)O)=CC[C@H]2c2ccc(C(C)C)cc2)cc1` here?
**A.** active: 9.27 µM

**Q.** With `O=C(N/N=C/c1cc(Cl)c(O)c(Cl)c1)c1cc2c(ccc3ccccc32)o1` as the compound, how does the Potency read?
**A.** inconclusive [inhibitor, single point]

**Q.** For `CC(=O)Nc1cc[n+](CC(=O)c2ccc(Cl)cc2)cc1`, which Potency is on record?
**A.** inactive

**Q.** Which Potency does the source give for `O=C(O)c1cccc2c1C(=O)c1ccc(-c3ccc(F)cc3OCc3ccccc3)cc1S2(=O)=O` here?
**A.** inconclusive [inhibitor, single point]

**Q.** `O=C1c2ccccc2C(=O)N1CCCCn1c(=O)oc2ccccc21` was tested. Which Potency did it give?
**A.** inactive

**Q.** With `Cc1ccc(SCc2cc(=O)c3c(=O)n(-c4ccccc4)[nH]c3[nH]2)cc1` as the compound, how does the Potency read?
**A.** inconclusive [inhibitor, partial curve, poor fit]

**Q.** With `COc1ccc(Cc2nnc(NC(=O)Cc3cccs3)s2)cc1` as the compound, how does the Potency read?
**A.** active: 11.7 µM

**Q.** For `Cc1ccc(N2CCN(C(=O)CCc3nc4ccccc4[nH]3)CC2)c(C)c1`, which Potency is on record?
**A.** inactive

**Q.** Which Potency does the source give for `C=CCOc1cccc(C2C(C(=O)c3ccco3)=C(O)C(=O)N2CCN(CC)CC)c1` (centres undefined) here?
**A.** inactive

**Q.** `C#CCOCCOCCOCCNc1nc(N2CCN(C(=O)CCCCCCCCCCNC(=O)Cn3cc(CCCCCN)nn3)CC2)nc(N2CCN(C(=O)CCCCCCCCCCNC(=O)[C@H](CO)n3cc(CCCCCN)nn3)CC2)n1` was tested. Which Potency did it give?
**A.** inconclusive [inhibitor, partial curve]

**Q.** With `Cc1noc(/C=C/c2ccco2)c1S(=O)(=O)N1CCC(C(=O)N2CCc3ccccc3C2)CC1` as the compound, how does the Potency read?
**A.** inconclusive [inhibitor, single point]

**Q.** `C/C(=N/NC(=O)c1cc2ccccc2cc1O)C1C(=O)c2ccccc2C1=O` was tested. Which Potency did it give?
**A.** active: 5.85 µM

**Q.** How did the Potency turn out when `Cc1ccc(Cn2nnc3c(=O)[nH]c(C4CCN(S(=O)(=O)Cc5ccccc5)CC4)nc32)cc1` was run?
**A.** inconclusive [inhibitor, partial curve, poor fit]

**Q.** With `O=C(/C(=N/N=C/c1ccc(O)c(O)c1O)c1ccccc1)c1ccccc1` as the compound, how does the Potency read?
**A.** inconclusive [inhibitor, partial curve]

**Q.** Which Potency does the source give for `CCCCCCCCCCOC(=O)Cn1c(COc2ccccc2)[n+](C)c2ccccc21` here?
**A.** inconclusive [inhibitor, single point]

**Q.** How did the Potency turn out when `CCC(C)Cn1c(O)cc2nn(-c3nc4ccccc4s3)c(=O)c-2c1C` (centres undefined) was run?
**A.** inconclusive [inhibitor, partial curve, poor fit]

**Q.** `CC[n+]1c(/C=C/N(C)c2ccccc2)n(-c2ccccc2)c2ccc(-c3nc4ccccc4s3)cc21` was tested. Which Potency did it give?
**A.** active: 13.1 µM

**Q.** How did the Potency turn out when `N#Cc1c(-c2cccs2)nc(SCc2ccc(Cl)cc2)[nH]c1=O` was run?
**A.** inconclusive [inhibitor, single point]

**Q.** For `CCN1C(=O)C(NC(C)=O)c2cc(OC)ccc21` (centres undefined), which Potency is on record?
**A.** inactive

**Q.** For `Cn1ccc(=Nc2ccc(NC(=O)c3ccc(N=c4ccn(C)c5ccc([N+](=O)[O-])cc45)cc3)cc2)cc1`, which Potency is on record?
**A.** inconclusive [inhibitor, single point]

**Q.** How did the Potency turn out when `O=C(CSc1nnc(SCc2ccccc2)s1)N/N=C/c1c[nH]c2ccccc12` was run?
**A.** inconclusive [inhibitor, partial curve, poor fit]

**Q.** Which Potency does the source give for `COc1cc(OC)cc(-c2c(C#Cc3ccsc3)c3cc(-c4ccc(OC)c(F)c4)ccc3n2C)c1` here?
**A.** inactive

**Q.** `CCCCC1CCC(C(=O)Nc2ccc(S(=O)(=O)Nc3nccs3)cc2)CC1` (centres undefined) was tested. Which Potency did it give?
**A.** inconclusive [inhibitor, single point]

**Q.** Which Potency does the source give for `Cc1cc(C(C)(C)CC(C)(C)C)ccc1OCCOCC[N+](C)(C)Cc1ccccc1` here?
**A.** inconclusive [inhibitor, single point]

**Q.** How did the Potency turn out when `CCCCCCCCCCCCCCCC[N+](C)(C)CCN(Cc1ccc(OC)cc1)c1ncccn1` was run?
**A.** active: 11.7 µM

**Q.** How did the Potency turn out when `COc1ccccc1C(=O)N1CCN=C1SC` was run?
**A.** inactive

**Q.** How did the Potency turn out when `Cc1ccc(C(=O)Nc2nnc(CC(=O)N/N=C/c3ccc(O)c(O)c3)s2)cc1` was run?
**A.** inconclusive [inhibitor, partial curve, poor fit]

**Q.** `O=C1CC(=O)N(Cc2ccco2)C(=S)N1` was tested. Which Potency did it give?
**A.** inconclusive [inhibitor, partial curve]

**Q.** For `C=C1c2cccc(O)c2C(=O)C2C(=O)[C@]3(O)C(=O)C(C(N)=O)C(=O)[C@@H](N(C)C)[C@@H]3[C@@H](O)[C@H]12` (some centres undefined), which Potency is on record?
**A.** inconclusive [inhibitor, single point]

**Q.** With `COc1ccc(/C=C2\SC(=O)N(CCC(=O)Nc3ccc(S(=O)(=O)Nc4nccs4)cc3)C2=O)cc1` as the compound, how does the Potency read?
**A.** inconclusive [inhibitor, single point]

**Q.** Which Potency does the source give for `O=C(CSc1ccc(Br)c2cccc(Cl)c12)Nc1ccc(S(=O)(=O)Nc2nccs2)cc1` here?
**A.** active: 9.27 µM

**Q.** Which Potency does the source give for `COC(=O)CSc1nnc(NC(=O)C2CC(=O)N(c3ccc(F)cc3)C2)s1` (centres undefined) here?
**A.** inconclusive [inhibitor, partial curve, poor fit]
